# According to PMC4336329 (PLoS ONE, 2015):
# Hit rate of the full screen: of about 310,000 compounds, about 2,200 (0.71%) showed an effect of 50% or more. The effect is printed as a negative number. Some of the results follow.
# Target: human ether-à-go-go-related gene (hERG) potassium channel (human, UniProt Q12809)
# Test: primary screen, population patch clamp on CHO cells stably expressing hERG
# Sequence of human ether-à-go-go-related gene (hERG) potassium channel (Q12809 whole entry, looked up): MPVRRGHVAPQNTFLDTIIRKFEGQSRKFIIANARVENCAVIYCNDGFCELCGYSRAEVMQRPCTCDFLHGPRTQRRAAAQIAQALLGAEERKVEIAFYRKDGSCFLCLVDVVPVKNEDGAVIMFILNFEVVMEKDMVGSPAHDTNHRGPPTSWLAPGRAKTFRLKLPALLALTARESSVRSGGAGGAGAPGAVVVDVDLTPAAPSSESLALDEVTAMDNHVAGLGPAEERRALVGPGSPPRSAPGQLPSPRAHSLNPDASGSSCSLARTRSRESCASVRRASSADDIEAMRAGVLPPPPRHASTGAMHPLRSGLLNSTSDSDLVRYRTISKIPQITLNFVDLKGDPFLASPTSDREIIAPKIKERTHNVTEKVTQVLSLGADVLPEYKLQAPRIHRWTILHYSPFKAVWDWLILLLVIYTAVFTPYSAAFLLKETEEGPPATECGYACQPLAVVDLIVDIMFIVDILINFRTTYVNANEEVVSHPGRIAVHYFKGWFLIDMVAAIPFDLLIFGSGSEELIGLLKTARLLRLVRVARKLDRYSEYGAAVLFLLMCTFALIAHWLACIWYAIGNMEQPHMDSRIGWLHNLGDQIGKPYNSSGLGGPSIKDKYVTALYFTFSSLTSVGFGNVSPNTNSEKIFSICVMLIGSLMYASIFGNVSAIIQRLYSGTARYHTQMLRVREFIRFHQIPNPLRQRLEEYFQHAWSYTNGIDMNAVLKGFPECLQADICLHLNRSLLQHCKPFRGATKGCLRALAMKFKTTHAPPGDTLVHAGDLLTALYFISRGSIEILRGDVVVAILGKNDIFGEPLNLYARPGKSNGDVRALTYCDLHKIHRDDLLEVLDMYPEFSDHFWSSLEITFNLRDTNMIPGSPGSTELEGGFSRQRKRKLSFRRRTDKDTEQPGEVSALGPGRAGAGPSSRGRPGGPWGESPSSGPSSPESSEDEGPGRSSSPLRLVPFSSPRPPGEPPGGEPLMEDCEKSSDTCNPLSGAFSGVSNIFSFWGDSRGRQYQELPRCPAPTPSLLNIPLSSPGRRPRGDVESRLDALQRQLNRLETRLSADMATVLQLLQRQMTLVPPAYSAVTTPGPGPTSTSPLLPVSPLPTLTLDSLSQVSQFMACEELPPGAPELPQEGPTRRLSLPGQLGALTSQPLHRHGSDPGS
row,SMILES,"hERG current change (%, negative = inhibition) at 1uM"
1,Cc1cccc(N2C(=O)N3[C@H](c4ccc(Br)cc4)[C@@H]4C(=O)N(C(C)(C)C)C(=O)[C@@H]4[C@]3(C)C2=O)c1,9.74%
2,CSCCC(NC(=O)c1ccc(Cl)cc1Cl)C(=O)OC(C)C(=O)NCc1ccco1 (stereo not shown),2.93%
3,CCCNC(=S)N1CCN(c2nc(-c3ccc(C)cc3)cs2)CC1,10.9%
4,Cc1ccc(NC(=O)CS(=O)CC(=O)Nc2ccccc2-c2ccc(C)o2)cc1 (stereo not shown),11.6%
5,CCOc1ccc(S(=O)(=O)N2CCC(C(=O)NCc3ccncc3)CC2)cc1,-14.5%
6,COc1ccc(/C=N/N2CCN(c3ccccc3OC)CC2)cc1Br,12%
7,CCOC(=O)C1=C(Nc2ccccc2)CC(C)(O)C(C(=O)OCC)C1c1ccc(Br)cc1 (stereo not shown),4.86%
8,CC(=O)Nc1ccc(S(=O)(=O)NC(C)C(=O)OCCOc2ccc(F)cc2)cc1 (stereo not shown),-1.55%
9,CCCS(=O)(=O)N1CCN(C2CCC(C)CC2)CC1.O=C(O)C(=O)O (stereo not shown),11%
10,CCCCCCCOC(=O)C1=C(C)Nc2ncnn2C1c1cccs1 (stereo not shown),17.2%
11,COc1ccc(C)cc1NC(=O)C(NCC(O)c1ccccc1)c1ccccc1.O=C(O)C(=O)O (stereo not shown),6.42%
12,CN1CCc2c(sc(NC(=O)C3CCCN3S(=O)(=O)c3ccc(Cl)s3)c2C(N)=O)C1.Cl (stereo not shown),-17%
13,Cl.Nc1ccc2c(c1)nc(Cc1ccccc1)n2CCO,10.9%
14,Cc1ccccc1NC(=O)COC(=O)/C=C/c1cn(-c2ccccc2)nc1-c1cccnc1,7.75%
15,CS(=O)(=O)c1ccccc1-c1nnc(NC(=O)c2cccc(N3C(=O)CCC3=O)c2)o1,15.7%
16,O=C(NCc1cccnc1)NC1CCCN1S(=O)(=O)c1ccc(Cl)cc1 (stereo not shown),2.28%
17,O=C(CN1C(=O)C2C3C=CC(C3)C2C1=O)NCCC1=CCCCC1 (stereo not shown),2.11%
18,O=C(/C=C/c1ccc(Br)cc1)NCc1cccs1,16.2%
19,CCOc1cccc2sc(NC(=O)CC)nc12,13.1%
20,O=C(CN1C(=O)NC2(CCc3ccccc3C2)C1=O)NCc1ccco1 (stereo not shown),4.74%
21,CCOC(=O)c1cc2c(=O)n3ccccc3nc2n(CCOC)c1=NC(=O)C(C)(C)C,10.1%
22,O=C1OCCN1CC(=O)N1CCc2c([nH]c3ccccc23)C1c1ccccn1 (stereo not shown),5.1%

row,SMILES,"hERG current change (%, negative = inhibition) at 1uM"
1,CCCCCCCNC(=O)C1(CC2CC(c3cccc(Br)c3)=NO2)CCN(C(=O)OC(C)(C)C)CC1 (stereo not shown),4.2%
2,Cc1ccccc1-n1c(C)cc(/C=N/Nc2ccc([N+](=O)[O-])cn2)c1C,16.6%
3,O=C(NCCc1ccc(Cl)cc1)C1CCN(S(=O)(=O)c2ccc(-n3cnnn3)cc2)CC1,-36.1%
4,CCOC(=O)c1c(-c2ccccc2)oc2ccc(O)cc12,10.6%
5,CCn1c(CNC(=O)c2ccccc2F)nnc1SCC(=O)Nc1nncs1,6.04%
6,O=C(c1ccccc1)c1cc[n+]([O-])cc1,4.5%
7,CCc1ccc(NS(=O)(=O)c2c(C(=O)N3CCCCCC3)c(C)n(C)c2C)cc1,9.92%
8,O=C(Nc1cccc(O)c1)C1CCCN1C(=O)OCc1ccccc1 (stereo not shown),3.5%
9,Clc1ccc2[nH]cc(-c3nnnn3-c3ccccc3)c2c1,11.5%
10,COCc1cc(=O)[nH]c(Nc2nc3ccccc3o2)n1,5.93%
11,COc1cc(OC)cc(-c2c(-c3cccs3)c3cc(-c4ccc(SC)cc4)ccc3n2C)c1,6.34%
12,CCOc1ccc(CCNC(=O)c2nnn(CC(=O)Nc3c(C)cc(C)cc3C)c2N)cc1OCC,15.9%
13,CC(=O)N(C)c1nc(-c2ccc(Cl)cc2)cs1,15.6%
14,CC(C)c1ccccc1OCCNC(=S)NC(=O)c1cccnc1,14.9%
15,CCCCNC(=O)Cn1cnc2c(cnn2-c2ccc(C)c(C)c2)c1=O,0.431%
16,COc1cccc(N2CCN(C(=S)NCCc3ccccc3)CC2)c1,4.9%
17,Cn1c(Cc2ccccc2)nnc1SCC(=O)c1ccc(Br)s1,-0.365%
18,C=C(CO)CC1CC(O)[C@]2(C)OC3CC4OC5C[C@]6(C)O[C@]7(C)CCC8OC9C[C@]%10(C)OC%11C(C)=CC(=O)OC%11CC%10OC9C[C@@H](C)C8OC7CC6O[C@]5(C)C/C=C\C4OC3CC2O1 (stereo partly shown),7.4%
19,COC(=O)CN1C(=S)N(Cc2ccccc2)C(=O)C1CC(=O)Nc1ccc(Br)cc1 (stereo not shown),16.9%
20,O=C(CC1S/C(=N/N=C/c2cccs2)NC1=O)Nc1ccccc1F (stereo not shown),23.6%
21,Cc1ccnc(NC(=S)NC(=O)c2ccco2)c1,0.569%
22,O=C(CNC(=O)c1ccc(Oc2ccccc2)cc1)OC1CCCCC1=O (stereo not shown),-58.8%

row,SMILES,"hERG current change (%, negative = inhibition) at 1uM"
1,N#CC1(NC(=O)COc2ccc3ccc(=O)oc3c2)CCCCC1,8.07%
2,c1csc(CNc2nc(-c3cccs3)nc3ccccc23)c1,0.853%
3,S=c1[nH]nc(Cc2ccccc2)n1-c1ccc(Cl)cc1,12.7%
4,COC(CN1CCc2c(C)nc3c(C#N)cnn3c21)OC,7.44%
5,Nc1cc(C(=O)OCC(=O)NCC2CCCO2)ccc1Cl (stereo not shown),9.38%
6,O=C(Nc1ccc(F)cc1F)c1c(C(F)(F)F)ccnc1Oc1ccccc1,5.44%
7,CCOc1ccc(OCC(=O)OCC(=O)NNC(=O)c2ccc([N+](=O)[O-])cc2)cc1,4.82%
8,Cc1ccc(-c2csc(N/N=C/c3ccco3)n2)c(C)c1,13.4%
9,COc1ccc(Cl)cc1NC(=O)CCn1cnc2ccccc2c1=O,6.22%
10,COc1ccc(-n2cc(-c3ccccc3)[nH]c2=S)c(OC)c1,14%
11,O=C(CCNS(=O)(=O)c1ccccc1)OCC(=O)c1ccc(Br)cc1,-1.21%
12,Cc1cc(N2CCOCC2)nc2ccc(NC(=O)CCC(=O)N3CCC4(CC3)OCCO4)cc12,0.648%
13,CCCNC(=O)C(=O)NCC(c1ccc2c(c1)OCO2)N1CCN(c2ccc(F)cc2)CC1 (stereo not shown),10.2%
14,Cc1cccc(NC(=S)NC2CCSc3ccccc32)c1 (stereo not shown),16.3%
15,COC(=O)N1[C@H](Cc2ccccc2)C=C[C@]1(C)C(=O)O,10.4%
16,Cc1ccc(-n2c(CNc3ccc(C)c(Cl)c3)n[nH]c2=S)cc1,-6.2%
17,Cn1c(N)c(C(=O)COC(=O)c2ncc(Cl)c(Cl)c2Cl)c(=O)n(C)c1=O,-2.09%
18,Cc1cc(Cl)ccc1C(=O)C1CCCN(C(=O)c2ccsc2)C1 (stereo not shown),4.82%
19,O=[N+]([O-])c1cc(/C=N/n2cnnc2)ccc1N1CCCC1,-4.85%
20,CC1CCN(C(=O)CN2C(=O)C(=O)N(C)C2=O)c2ccccc2S1 (stereo not shown),13.7%
21,CC(C)(C)OC(=O)N1CCCN(C(=O)Nc2ccc(C(F)(F)F)cc2)CC1,12.3%
22,Nc1ccc(C2CCCc3nonc32)c2nonc12 (stereo not shown),12.5%

row,SMILES,"hERG current change (%, negative = inhibition) at 1uM"
1,NC(=S)N/N=C/c1ccc(/C=N/NC(N)=S)cc1,18.4%
2,Cc1ccccc1NC(=S)NNC(=O)c1cccnc1,7.85%
3,Clc1ccc(-c2cc(CN3CCOCC3)no2)cc1,16%
4,FC(F)Oc1ccccc1NC(=S)Nc1cccnc1,7.06%
5,Cc1cc(C)c(-c2nc3ccccc3s2)[nH]1,14%
6,OC(CNC1Cc2ccccc2C1)COc1ccc(F)cc1 (stereo not shown),-7.42%
7,Cc1cc(-c2csc(N)n2)c(C)n1C,12.2%
8,CC1(C)C(=O)OC(C(=O)c2ccc(Cl)cc2)C(C)(C)C1=O (stereo not shown),-1.25%
9,C/C(=N\NC(=O)Cc1ccccc1[N+](=O)[O-])c1cccnc1,5.44%
10,COc1ccc(C(=O)N2CCN(S(=O)(=O)c3ccc(Br)cc3)CC2)cc1,11.6%
11,CC1(C)Cc2noc(N)c2C(C)(C)N1OC(=O)c1ccco1,13.6%
12,O=C(Nc1ccc(S(=O)(=O)N2CCOCC2)cc1)c1c(F)cccc1F,9.81%
13,O=C(CNS(=O)(=O)c1ccccc1)N/N=C/c1ccc(O)cc1,6.73%
14,C[C@@H](O)[C@@H]1NC(=O)c2cc([N+](=O)[O-])cc(I)c2NCC[C@@H](C(N)=O)NC(=O)CNC1=O,2.38%
15,CCCCCCCN1C=CC(=O)CC1,17%
16,Cc1ccc2c(CC(=O)O)coc2c1C,12.7%
17,CCOc1cc(/C=N\NC(=O)c2ccc(NC(=O)CC)cc2)ccc1OC(=O)c1ccccc1,10.2%
18,C/C(=N\OCC(=O)N/N=C/c1ccccc1)c1cccs1,-1.2%
19,CCOP(=O)(OCC)/C(=N/OC(=O)c1ccc(Cl)cc1Cl)C(N)=O,13.6%
20,Cl.O=C(NCCN1CCNCC1)c1ccccn1,8.8%
21,CCN(CC)CCNC(=O)c1ccc(CS(=O)(=O)c2ccc(Br)cc2)o1,-24.2%
22,CN(C)/C(CN1CCOCC1)=C1\N=C(c2ccccc2)OC1=O,5.94%
